According to PMC4336329 (PLoS ONE, 2015):
About 2,200 (0.71%) of roughly 310,000 compounds showed an effect of 50% or more. Effects have a minus sign here. The list shows a part of the results.

target: human ether-à-go-go-related gene (hERG) potassium channel (human, UniProt Q12809); assay: primary screen, population patch clamp on CHO cells stably expressing hERG
Sequence (Q12809 whole entry, looked up): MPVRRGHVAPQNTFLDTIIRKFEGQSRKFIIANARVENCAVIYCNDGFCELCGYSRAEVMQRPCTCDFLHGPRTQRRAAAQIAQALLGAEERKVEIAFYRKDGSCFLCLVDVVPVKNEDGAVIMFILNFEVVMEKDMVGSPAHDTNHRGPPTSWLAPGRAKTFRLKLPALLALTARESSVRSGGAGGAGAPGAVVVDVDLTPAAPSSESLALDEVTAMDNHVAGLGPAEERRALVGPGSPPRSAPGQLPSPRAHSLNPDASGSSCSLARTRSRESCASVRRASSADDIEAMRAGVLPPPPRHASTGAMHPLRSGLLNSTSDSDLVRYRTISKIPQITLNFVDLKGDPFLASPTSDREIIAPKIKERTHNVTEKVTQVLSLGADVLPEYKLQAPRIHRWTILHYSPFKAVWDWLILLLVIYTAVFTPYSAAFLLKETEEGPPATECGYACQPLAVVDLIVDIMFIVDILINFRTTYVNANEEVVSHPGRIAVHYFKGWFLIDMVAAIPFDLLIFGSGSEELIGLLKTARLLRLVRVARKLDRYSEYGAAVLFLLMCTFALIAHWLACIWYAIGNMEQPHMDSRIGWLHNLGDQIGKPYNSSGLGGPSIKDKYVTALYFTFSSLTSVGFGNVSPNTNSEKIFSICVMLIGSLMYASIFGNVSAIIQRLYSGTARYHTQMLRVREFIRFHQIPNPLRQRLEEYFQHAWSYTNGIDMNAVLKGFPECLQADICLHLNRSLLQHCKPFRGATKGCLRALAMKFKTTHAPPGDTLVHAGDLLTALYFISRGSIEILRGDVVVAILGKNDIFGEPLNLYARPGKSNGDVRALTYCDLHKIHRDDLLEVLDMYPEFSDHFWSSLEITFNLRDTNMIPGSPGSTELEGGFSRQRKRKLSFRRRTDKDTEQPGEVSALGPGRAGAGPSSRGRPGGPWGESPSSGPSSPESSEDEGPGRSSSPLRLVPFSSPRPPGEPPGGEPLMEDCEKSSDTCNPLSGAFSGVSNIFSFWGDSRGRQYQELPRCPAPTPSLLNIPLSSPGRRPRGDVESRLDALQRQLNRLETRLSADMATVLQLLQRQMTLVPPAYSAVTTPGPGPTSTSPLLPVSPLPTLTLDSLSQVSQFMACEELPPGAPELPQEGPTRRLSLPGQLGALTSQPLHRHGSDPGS

Compound | hERG current change (%, negative = inhibition) at 1uM [%]
O=C(CN1C(=O)S/C(=C\c2ccccc2Cl)C1=O)NC1C=CS(=O)(=O)C1 (centres unmarked) | 9.49
COc1ccc(N2CCN(C(=O)CSc3nnc4c(C)cc5ccccc5n34)CC2)cc1 | 23.3
O=C1CCCc2nc(N3CCN(C(c4ccccc4)c4ccccc4)CC3)ncc21 | 9.18
Cc1ccccc1Sc1ccc([N+](=O)[O-])cn1 | 9.4
CCc1ccccc1NC(=O)CC(=O)Nc1ccccc1CC | 22.2
COc1ccccc1NC(=O)c1oc2ccccc2c1NC(=O)c1cc(OC)c(OC)c(OC)c1 | 10.9
COc1ccccc1NC(=O)COC(=O)c1ccccc1SCC(=O)N1CCCC1 | 14.8
CCCCCCCCCCCCCCCC(=O)NCCc1c[nH]c2ccccc12 | 8.74
COc1ccc(C2C(CN3CCOCC3)C(=O)N2c2ccccc2)cc1 (centres unmarked) | 8.96
O=S(=O)(Nc1ccc(Br)cc1)c1cccc2cccnc12 | 16.9
O=C(Nc1nc(-c2cc3ccccc3oc2=O)cs1)c1ccc(Br)o1 | 10.1
O=C(Nc1nc2c(F)cccc2s1)c1ccco1 | 6.41
CCN1CCN(c2ccc([N+](=O)[O-])cc2C(=O)OC)CC1 | -23.7
COC1(OC)N=C(N)C2(C#N)C(c3ccc(F)cc3)C12C#N (centres unmarked) | -6.77
Oc1ccc(Br)cc1C=Nc1ccc(Cl)cc1 | 12.4
Cc1ccc[n+](-c2nc([O-])sc2C=O)c1 | 14.6
O=C(Nc1cccc(F)c1)C1CCN(S(=O)(=O)c2cccc3nonc23)CC1 | 4.81
CN(C)c1ccc(/C=C(\NC(=O)c2ccccc2)C(=O)NCc2cccnc2)cc1 | -0.749
Cc1ccc(-n2c(SCn3nnc4ccccc4c3=O)nnc2-c2cccnc2)c(C)c1 | -5.66
Cc1cc(C2(O)C(=O)Nc3ccccc32)ccc1F (centres unmarked) | 14.6
CCCCC(CC)C(=O)Nc1ccccc1C(=O)NC(C)C (centres unmarked) | 10.4
NS(=O)(=O)c1ccc(NC(=O)c2ccc(F)cc2F)c(NC(=O)c2ccc(F)cc2F)c1 | 10.5

Compound | hERG current change (%, negative = inhibition) at 1uM [%]
O=C(Nc1nc2ccccc2n1CCN1CCCCC1)c1ccco1 | -37.4
Clc1ccccc1COc1ccc(/C=N/n2cnnc2)cc1 | 4.64
CCn1cnc2c1c(=O)n(Cc1cccc([N+](=O)[O-])c1)c(=O)n2Cc1ccccc1 | 14.4
COc1ccc(C2(C(=O)NCCCN(C)C)CCOCC2)cc1 | 5.65
Cc1ccc(C(=O)CCC(=O)OCC(=O)N(C)c2c(N)n(Cc3ccccc3)c(=O)[nH]c2=O)cc1 | 8.67
Cc1ccc2c(c1)nnn2C1CCN(C(=O)C2CCCCC2)CC1 | -3.24
Cc1cc(N/N=C/c2ccc(Cl)cc2)nc(NCc2ccccc2)n1 | 17
CCCC(=O)Nc1nnc(Sc2ccc(N(C)C)cc2)s1 | 6.01
CC1CCC2(CC1)NC(=O)N(CC(=O)NCc1ccc3c(c1)OCO3)C2=O (centres unmarked) | 10.5
Cn1cccc1-c1cc(C(=O)O)[nH]n1 | 8.72
Cn1cc(Cl)c(C(=O)OCC(=O)c2ccccc2)n1 | 17.4
CCCn1nc(C(=O)Nc2nnc(C3CC3)s2)c2ccccc2c1=O | 4.88
COc1ccc(N(CC(=O)Nc2cccc(C)c2)S(=O)(=O)c2c(C)noc2C)cc1 | 14.4
c1coc(CNc2nc3ccccc3s2)c1 | 12.6
Cc1nc([N+](=O)[O-])c(NCCCO)n1Cc1ccccc1 | 5.38
Nc1cccc2c(=O)c3ccccc3[nH]c12 | 13.8
CCN1/C(=C2/SC(=S)N(NC(C)=O)C2=O)Sc2ccc(Cl)cc21 | -5.18
CC(C)c1ccc(/C=N/n2nnnc2Nc2ccccc2)cc1 | 12.1
CC(NCC(=O)Nc1ccccc1C(=O)NC1CC1)c1ccc(S(N)(=O)=O)cc1.O=C(O)C(=O)O (centres unmarked) | 0.622
Cc1ccc(/C=c2\s/c(=C(/C#N)C(=O)N3CCCC3)n(Cc3ccco3)c2=O)s1 | -1.02
COc1ccc(C(=O)Nc2nc3ccc(OC)cc3s2)cc1 | 10.5
COc1ccc2c(c1)O[C@@H](c1cccc(C(F)(F)F)c1)[C@H](OC(=O)NCCc1ccc(OC)c(OC)c1)C2=O | 0.208
